According to publication PMC4336329 (PLoS ONE, 2015):
In all, about 310,000 compounds went through this assay and about 2,200 (0.71%) showed an effect of 50% or more. The effect is printed as a negative number. The list shows a part of the results.

Target: human ether-à-go-go-related gene (hERG) potassium channel (human, UniProt Q12809)
Assay: primary screen, population patch clamp on CHO cells stably expressing hERG

Chain of human ether-à-go-go-related gene (hERG) potassium channel (Q12809 whole entry, looked up): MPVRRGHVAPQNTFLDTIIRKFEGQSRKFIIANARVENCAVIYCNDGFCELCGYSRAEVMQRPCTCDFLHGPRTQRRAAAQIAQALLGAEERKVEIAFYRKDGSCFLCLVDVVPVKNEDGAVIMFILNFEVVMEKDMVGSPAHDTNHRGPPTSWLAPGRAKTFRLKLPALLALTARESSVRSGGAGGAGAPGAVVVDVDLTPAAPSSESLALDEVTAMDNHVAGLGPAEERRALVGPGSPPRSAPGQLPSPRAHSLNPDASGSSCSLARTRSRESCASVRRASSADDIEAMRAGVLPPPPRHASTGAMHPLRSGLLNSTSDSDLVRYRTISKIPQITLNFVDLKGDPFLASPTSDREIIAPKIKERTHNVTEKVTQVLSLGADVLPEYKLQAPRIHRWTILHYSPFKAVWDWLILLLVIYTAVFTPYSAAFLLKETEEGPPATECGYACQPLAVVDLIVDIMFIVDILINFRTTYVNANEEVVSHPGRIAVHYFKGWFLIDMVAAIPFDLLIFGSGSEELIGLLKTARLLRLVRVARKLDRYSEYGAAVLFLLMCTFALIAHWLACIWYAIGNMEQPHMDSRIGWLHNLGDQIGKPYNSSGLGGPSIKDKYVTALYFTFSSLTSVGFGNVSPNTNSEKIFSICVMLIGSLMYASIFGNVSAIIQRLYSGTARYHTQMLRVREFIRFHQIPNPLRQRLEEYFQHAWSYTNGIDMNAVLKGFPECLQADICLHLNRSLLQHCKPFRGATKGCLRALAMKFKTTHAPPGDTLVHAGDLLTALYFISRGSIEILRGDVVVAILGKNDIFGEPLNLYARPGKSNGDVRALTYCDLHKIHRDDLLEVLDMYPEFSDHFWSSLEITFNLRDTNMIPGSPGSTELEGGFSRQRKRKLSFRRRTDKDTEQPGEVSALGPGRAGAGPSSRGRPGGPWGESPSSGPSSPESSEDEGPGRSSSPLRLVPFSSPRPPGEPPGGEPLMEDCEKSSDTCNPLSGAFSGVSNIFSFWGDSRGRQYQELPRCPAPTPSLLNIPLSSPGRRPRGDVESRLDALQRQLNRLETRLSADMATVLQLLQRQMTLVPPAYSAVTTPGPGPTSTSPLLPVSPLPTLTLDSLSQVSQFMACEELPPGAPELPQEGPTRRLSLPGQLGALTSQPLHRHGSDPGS

SMILES | hERG current change (%, negative = inhibition) at 1uM [%]
CCN(CC)CCN(C(=O)CN1C(=O)c2ccccc2C1=O)c1nc2cc3c(cc2s1)OCO3.Cl | -7.4
CCCc1[nH]nc2c1C(c1ccccc1OC)C(C#N)=C(N)O2 (stereo not shown) | 11.9
Cc1ccc(NC(=O)c2c([N+](=O)[O-])cnn2C)cc1C | 11
N#Cc1cccc(N=Cc2c(O)ccc3ccccc23)c1 | 12.6
Cc1cccc(NC(=O)CN2CCc3cc4c(cc3C2)OCCCO4)c1 | 25
CCC1CCC(C(=O)NC(CCSC)C(=O)NCCc2ccc(S(N)(=O)=O)cc2)CC1 (stereo not shown) | 9.17
CC1C[N+](=C2C=C(N3CCOCC3)CC(C)(C)C2)CC(C)O1.[I-] (stereo not shown) | 12.3
Cc1ccc(S(=O)(=O)N2CCCC2CNC(=O)c2ccc3c(c2)OCO3)cc1 (stereo not shown) | 11.4
CCOC(=O)Oc1ccc2c(=O)c(Oc3cccc(C)c3)coc2c1 | 9.94
CCOC(=O)N1CCN(C(=O)CSc2ccc3nnc(-c4cccnc4)n3n2)CC1 | 8.51
O=C(c1ccco1)N1CCN(S(=O)(=O)c2ccc(S(=O)(=O)NC3CC3)cc2)CC1 | 6.25
Cc1ccc2c(c1)C(=O)CCN2 | -3.47
COc1ccc(CNC(=O)COC(=O)/C=C/c2ccc(S(=O)(=O)N3CCOCC3)cc2)cc1 | 12.3
O=C(CCNC(=O)c1ccc([N+](=O)[O-])cc1)NCCCN1CCCC1=O | 14.7
COc1ccc(CC2(CO)CCN(C(C)COc3ccccc3)CC2)cc1 (stereo not shown) | -68.4
CC1Cc2ccccc2N1CC(=O)NCc1ccccc1Cl (stereo not shown) | 8.38
C/C(CC(C)C)=N\Oc1nc(C)cc(C)n1 | 23
COc1ccc2ccccc2c1/C=N/NC(=S)Nc1cc(S(=O)(=O)N2CCOCC2)ccc1N1CCOCC1 | 17.8
COc1ccc(S(=O)(=O)N2CCCC2=O)cc1N(C)S(C)(=O)=O | 15.4
O=C(CN1CCN(c2ccc(F)cc2)CC1)Nc1ccc(-n2cnnn2)cc1 | 8.42
Cc1ccc2c(c1)=C(c1sc(N(C)c3ccc(O)cc3)nc1O)C(=O)N=2 | 14.6
COc1ccc(CCOC(=O)c2ccc(NC(=O)CC#N)cc2)cc1 | 14.1

SMILES | hERG current change (%, negative = inhibition) at 1uM [%]
Cn1nnnc1SCCNC(=O)C1CCC(=O)N(Cc2ccc(Cl)cc2)C1 (stereo not shown) | -0.925
Cc1ccc(-n2c(=O)c3cc4c(=O)n(-c5ccc(C)c(C)c5)c(=O)c4c(C(=O)c4ccc(C(=O)O)cc4)c3c2=O)cc1C | 20.4
c1ccc(-n2nnnc2-c2cnc(-c3cccnc3)nc2-c2cccs2)cc1 | 11.9
COc1ccc(NC(=S)NNC(=O)COc2ccc(Cl)cc2Cl)cc1 | 7.15
COC(=O)C1=CN(C2CC2)C=C(C(=O)OC)C1c1ccc(C(F)(F)F)cc1 | 1.15
O=C(CCCc1ccccc1)Nc1ccc(S(=O)(=O)N2CCOCC2)cc1 | -1.23
COc1ccc(Cc2nnc(NS(=O)(=O)c3ccc(Cl)cc3)s2)cc1OC | 9.24
CSc1ccc(CCNC(=O)c2ccc(CS(=O)Cc3ccc(Cl)cc3)o2)cc1 (stereo not shown) | -1.08
COc1ccc(-c2nc3c4ccccc4[nH]c(=O)n3n2)cc1 | 11.3
Brc1ccc2c(c1)C(OC1CN3CCC1CC3)c1ccccc1CS2.O=C(O)/C=C\C(=O)O (stereo not shown) | -27.6
O=c1cnnc(NCc2ccccc2)[nH]1 | 15.8
CCOC(=O)c1[nH]c2ccc(OC)cc2c1NC(=O)NC(C)C | 13
CCOC(=O)c1cn(Cc2ccccc2)c2cc(C)nn2c1=O | 9.39
CC(C)CNC(=O)c1c(N)n(Cc2ccc3c(c2)OCO3)c2nc3ccccc3nc12 | 9.52
CCCCCC(=O)NNC(=O)Nc1ccccc1 | 8.85
Cc1ccc(S(=O)(=O)NC(C)(C)C)cc1C(=O)OCC(=O)N1CCCC1=O | -1.6
O=C(O)c1ccc(N2CCCS2(=O)=O)cc1 | 16.5
COc1ccccc1-c1ccc(Nc2cccc(C(C)=O)c2)nn1 | 6.05
O=C(c1cc2nc(-c3cccs3)cc(C(F)(F)F)n2n1)N1CCCc2ccccc21 | 10.3
CCC(=O)N1CCN(c2ccccc2NC(=O)c2cccs2)CC1 | -10.1
O=C(CSc1nc2ccccc2n1Cc1ccccc1Cl)N/N=C/c1ccccc1C(=O)O | 14.5
O=C(O)CCCN1C(=O)/C(=C/C=C/c2ccco2)SC1=S | 12.5

SMILES | hERG current change (%, negative = inhibition) at 1uM [%]
CC(NC(=O)c1cccs1)C(S)c1ccccc1 (stereo not shown) | 10.4
Cc1ccc(-c2cc(-c3ccccc3Cl)[nH]n2)c(O)c1 | -9.52
COc1c(F)c(F)c(C(=O)O)c(Nc2cccc(C)c2)c1F | 14.4
CCCCC1(C)NC(=O)c2c(C)sc(C(=O)OCC)c2N1 (stereo not shown) | 8.47
COc1ccc(OC)c(S(=O)(=O)N(C)CC(=O)Nc2ccc3c(c2)OCCO3)c1 | 18
COCCN1C(=S)N[C@@H](c2cccc(F)c2)C(C(=O)OC)=C1C | 2.84
Cc1cccc(N2CCN(S(=O)(=O)c3cn(C)cn3)CC2)c1C | 21.2
Cc1cc(OCC(=O)N2CCN(c3ccccc3)CC2)c2c(C)c(C)c(=O)oc2c1 | 14
CCOc1ccc(NC(=O)N(CCC(C)C)C2CCN(C(C)=O)CC2)cc1 | 7.21
CCOc1ccc(N(C(=O)c2snc(C(N)=O)c2N)C(C(=O)NCC2CCCO2)c2c[nH]c3ccccc23)cc1 (stereo not shown) | 15.4
Cc1ccc(N(C(=O)C(F)(F)F)C(C(=O)NC2CCCCC2)c2cccs2)cc1 (stereo not shown) | 8.94
Cn1ccc(NC(=O)CCl)n1 | 4.47
COc1ccc(CC(=O)NC(=S)Nc2cccc(CO)c2)cc1 | -10.8
CC1CCCCN1C(=O)COC(=O)C1CCN(S(=O)(=O)c2ccc(Cl)c(C(F)(F)F)c2)CC1 (stereo not shown) | 7.66
CCOC(=O)c1c(C)nn(-c2ncccc2NC(=O)CCC(=O)O)c1C | 15.5
CN1C(=O)/C(=C/c2coc3ccc(O)cc3c2=O)SC1=S | 10.8
Brc1ccc(/C=N/Nc2ccccn2)cc1 | 11.3
CCOC(=O)C1=C(C)NC(C)=C(C(=O)OCC)C1C(=O)OCC(=O)NC(C)C | 8.88
Cc1cc(=O)oc(C)c1C(=O)N1CCN(Cc2ccc3c(c2)OCO3)CC1 | 1.53
O=C(NCc1ccccc1)c1ccc[n+]([O-])c1 | 19.5
Cc1cnc(C(=O)OC(C)C(=O)Nc2ccc(Oc3ccccc3)cc2)cn1 (stereo not shown) | 11.7
COc1ccccc1C(=O)NCC(c1cccs1)N1CCc2ccccc21 (stereo not shown) | 10.3

SMILES | hERG current change (%, negative = inhibition) at 1uM [%]
CCCCCCOc1ccc(C(=O)n2cnc(N)n2)cc1 | 4.86
COc1cccc(-c2cc(C(F)(F)F)n3nc(N)nc3n2)c1 | 9.28
Nc1ncnc2c1ncn2CCOc1ccccc1 | 11.7
Cc1cc(C)n(-c2n[nH]c(=O)c3ccccc23)n1 | 12.2
COCc1c(C(=O)N/N=C(\C)c2ccncc2)nnn1-c1nonc1N | 17
COc1cc([N+](=O)[O-])ccc1N1C(=O)CC(Sc2nccc(C)n2)C1=O (stereo not shown) | 6.15
CCCCCc1c(C)nc(Nc2ccccc2)[nH]c1=O | 13.6
COCCSc1ccccc1C(=O)Nc1ccccc1C#N | 10.7
Cc1cc(C)cc(NC(=O)C(OC(=O)Cn2cnc3c2c(=O)n(C)c(=O)n3C)c2ccccc2)c1 (stereo not shown) | -33.1
CCc1nc2c(cnn2-c2ccc(F)cc2)c(=O)n1-c1ccc(N2CCC(C)CC2)cc1 | 13.7
O=C(Nc1nc2c(s1)C(=O)CCC2)c1ccccc1 | 17.9
CCN(CC(=O)NC1CCCC1)S(=O)(=O)c1ccc(C)cc1 | 0.468
COc1ccc(/C=N/Nc2ccc(C(F)(F)F)cc2[N+](=O)[O-])cc1O | 3.36
CCC(C(=O)NCc1cccs1)n1nc(C)n2c(cc3occc32)c1=O (stereo not shown) | 6.25
C=CCc1c(C)nc(SCc2ccccc2)[nH]c1=O | 10.4
COc1ccc(CCNC(=O)c2ccc(Cl)c(S(=O)(=O)N3CCCCCC3)c2)cc1 | -0.87
Cc1ccc([N+](=O)[O-])cc1NC(=O)CN(C(=O)c1ccc(Cl)cc1)C1CCCCC1 | -2.2
O=C(NC1CCN(C(=O)Nc2ccccc2Cl)CC1)c1ccccc1 | 1.3
CCCC(=O)Nc1ccc2c(c1)nc(CN1CCN(C(=O)OCC)CC1)n2C | 15
C=C1C[C@]23C[C@@]1(O)CC[C@H]2[C@@]12C=C[C@H](O)[C@@](C)(C(=O)O1)[C@H]2[C@@H]3C(=O)O | 1.57
Cn1c(N2CCOCC2)cc(=O)n(C)c1=O | 11.1
Cc1cc(=O)oc2ccc(OC(=O)c3cccc(S(=O)(=O)N4CCOCC4)c3)cc12 | -23.1
